Our source for the self-cleavage values is the RNAGym collection of RNA variant scans (doi:10.7554/elife.90254).

The labels stand for the following.
B1: LINE1-mini (parent)
chain: GGCAGAGCUCAACACAGCGUGGCAAAGUGGCUGUGGCUAGACUGCC

Read counts are not given, so values of variants with three or more changes are uncertain.

In the series the parent is B1. The series can be described thus: self-cleavage, relative activity (ratio to wild type); higher = more cleavage; in vitro, sequencing; the parent is a self-cleaving ribozyme.
Consider GGCAGAGCUCCACACAGCGUGGCACAUCGGCUGUGGCUAGACUGCC [A11C A25C G27U U28C], for which the self-cleavage was determined as 0.04.

For the variant GGCAGAGCUCCACACAGAGUGGCAUAGUGGCUGUGGCUAGACUGCC [A11C C18A A25U], the self-cleavage worked out at 0.04.

As for GGCAGAGCUUAACACAGCGUGGCAAAGGGGCUGUGGCCAGACUGCC [C10U U28G U38C], the self-cleavage came out at 0.18.

With GGCAGAGCUCCACACAGCGUGGCUAAGUCGCUGUGGCUAGACUGCC [A11C A24U G29C], the self-cleavage was 0.05.

GGCAGAGCUCCACAUAGCGUCGCAAAGUGGCUGUGGCUAGAUUGCC [A11C C15U G21C C42U]: the self-cleavage is 0.01.

GGCAGAGCUCCAAACAGCGUGGCAAAGUGGCUGUGGCUGGACUGCC [A11C C13A A39G]: the self-cleavage was determined as 0.02.

With GGCAGAGCUCCACGCAGCGUGGCAAAGUGGGUGUGGCUAGACUGCC [A11C A14G C31G], the self-cleavage came out at 0.

For GGCAGAGCUCCACACAGCGUGGCCUAGUGGCUGCGGCUAGACUGCC [A11C A24C A25U U34C], the self-cleavage came out at 0.02.

Turning to GGCAGAGCUCCACAUAGCGUGGCAAAGAGGCUGUGGCUAGACUGCC [A11C C15U U28A], the self-cleavage came to 0.03.

GGCAGAGCUCCAUACAGCGUGGCAAAGUGUCUGUGGCUAGACUGCU [A11C C13U G30U C46U]: the self-cleavage turned out to be 0.15.

For the variant GGCAGAGCUCCACACUGCGUGGCAAAGUGGUUGUGGCUAGACUGCC [A11C A16U C31U], the self-cleavage was 0.01.

GGCAGAGCUCCACACCGCGUGGCAAAGUUGCUGUGGCUAGACUGAC [A11C A16C G29U C45A]: the self-cleavage came out at 0.

For GGCAGAGCUCCACACAGAGUGGUAAACUGGCUGUGGAUAGACUGCC [A11C C18A C23U G27C C37A], the self-cleavage was 0.02.

For the variant GGCAGAGCUCCACAAAGCGUGGCAAAGUGGGUGUGGCUAGACUACC [A11C C15A C31G G44A], the self-cleavage is 0.02.

For the variant GGCAGAGCUCCACACAGCGUGGCAAAGUGGCUGUGGCUUAACUGCC [A11C A39U G40A], the self-cleavage stood at 0.

In the case of GGCAGAGCUCCAAACAGCGUGGCAAAGUGGUUGUGGCUAUACUGCC [A11C C13A C31U G40U], the self-cleavage is 0.03.

With GGCAGAGCUUAACACAGCGUGGCAAAGUGGCUGUGGCGAGACAGCC [C10U U38G U43A], the self-cleavage was 0.05.

In the case of GGCAGAGCUUAACACAGCGUGGCAAAGUGGCUGCGGCUCGACUGCC [C10U U34C A39C], the self-cleavage worked out at 0.04.

On to GGCAGAGCUCCACACAGCGUGGCAGAGUGGCUCUGGCUACACUGCC [A11C A25G G33C G40C], for which the self-cleavage turned out to be 0.01.

GGCAGAGCUCCACGCAGCGUGGCAAAGUGGCAGUGGCUAGACUGCA [A11C A14G U32A C46A]: the self-cleavage is 0.

For GGCAGAGCUCCACAAAGCGUGGCAAAGUGGCUGUGGCCAGACUGCC [A11C C15A U38C], the self-cleavage came out at 0.

Turning to GGCAGAGCUCCAGAAAGCGUGGCAAAGUGGCUGUGGCUAGACUGCC [A11C C13G C15A], the self-cleavage is 0.01.

For GGCAGAGCUCCACGCAGCGUGGAAAAGUGGCUGUGUCUAGUCUACC [A11C A14G C23A G36U A41U G44A], the self-cleavage came out at 0.02.

Consider GGCAGAGCUCCAUACAGCGUGGCAAAGUGGCUGUGGCUAGAUUGAC [A11C C13U C42U C45A], for which the self-cleavage amounted to 0.02.

GGCAGAGCUCCACACAGUGUGGCAAAGUGGGUGUGGCUAGACUGCC [A11C C18U C31G]: the self-cleavage was 0.01.

Regarding GGCAGAGCUCCAAACAGUGUGGGAAAGUGGCUGUGGCUAGACUGCC [A11C C13A C18U C23G], the self-cleavage came out at 0.02.

Take GGCAGAGCUCCAUACAGAGUGGCAAAGUGGCUGCGGCUAGACUGCC [A11C C13U C18A U34C]: the self-cleavage stood at 0.01.

Take GGCAGAGCUCCACUCAGCGUGGUAAAGUGGCUGUGACUAGAAUGCC [A11C A14U C23U G36A C42A]: the self-cleavage came out at 0.

With GGCAGAGCUCCACACUGCGUGUCAAAGUGGCUGUGGCUAGACUGCC [A11C A16U G22U], the self-cleavage amounted to 0.

Take GGCAGAGCUUAACACAGCGUGGCAAAGUGGCUGCGGUUAGACUGCC [C10U U34C C37U]: the self-cleavage was 0.01.

With GGCAGAGCUCCACACAGCGUGGCUAAGUGGCUGAGGCUAGACUGCC [A11C A24U U34A], the self-cleavage came to 0.

For the variant GGCAGAGCUCCAGACAGCAUGGCAAAGUGGCUGUGGCUAGAGUGCC [A11C C13G G19A C42G], the self-cleavage amounted to 0.03.

With GGCAGAGCUCCAGACAGCGCGUCAAAGUGGCUGAGGCUAGACUGCC [A11C C13G U20C G22U U34A], the self-cleavage was found to be 0.02.

Take GGCAGAGCUCCAGACAGCGUGGCAAAGGGACUGUGGCUAUACUGCG [A11C C13G U28G G30A G40U C46G]: the self-cleavage turned out to be 0.

With GGCAGAGCUCCAUACAGCGUAGCAUAGUGGCUGUGGCUAGACUGCC [A11C C13U G21A A25U], the self-cleavage worked out at 0.02.

Consider GGCAGAGCUCCACAGAGCGUCGCAAAGUGGCUGUCGCUAGACCGCC [A11C C15G G21C G35C U43C], for which the self-cleavage came out at 0.01.

On to GGCAGAGCUCCAAACAGCGUGGCAAAGUGGCAGAGGCGAUACUGCC [A11C C13A U32A U34A U38G G40U], for which the self-cleavage was 0.

For the variant GGCAGAGCUCCACAAAGCUUGACAAAGUGGCUGUGGGUAGCCUACC [A11C C15A G19U G22A C37G A41C G44A], the self-cleavage is 0.

In the case of GGCAGAGCUCCCCACAGCGUGGCAAAGUGGCUGUGGCUAGACUUCC [A11C A12C G44U], the self-cleavage worked out at 0.

On to GGCAGAGCUCCUCCCAGCGUGGCAAAGUGGCUGCGGCUAGACUGUC [A11C A12U A14C U34C C45U], for which the self-cleavage was 0.05.

On to GGCAGAGCUCCACCCAGCGUGCCAAAGUGGCUGUGGCUAGACUGCC [A11C A14C G22C], for which the self-cleavage is 0.06.

As to GGCAGAGCUCCACGUUGCGUGGCAAAGGGGGUGUGGCUAGACUGCC [A11C A14G C15U A16U U28G C31G], the self-cleavage was found to be 0.

Take GGCAGAGCUCCGCAUAGCGUGGCAAAUUGGCUGUGGCUAGAAUGCC [A11C A12G C15U G27U C42A]: the self-cleavage was determined as 0.

Turning to GGCAGAGCUCCACACAGCGUGGCAGCGCGGCUGUGGCUAGACUGCC [A11C A25G A26C U28C], the self-cleavage came to 0.01.

On to GGCAGAGCUCCACAAAGCGUGGCUCAGAAGCUGUAGCUAGGCUGCC [A11C C15A A24U A25C U28A G29A G35A A41G], for which the self-cleavage was found to be 0.01.

Consider GGCAGAGCUCCACAAAGCGUGGGAAAGUGGCUGUGGCUAAACUGCC [A11C C15A C23G G40A], for which the self-cleavage was found to be 0.02.

On to GGCAGAGCUCCACACAGGUUUGCAAAGUGGCUGUGGCUAGAAUGCC [A11C C18G G19U G21U C42A], for which the self-cleavage came out at 0.02.

On to GGCAGAGCUCCACAUAGCGUGGCAAAGUGGCUGUGGCUAGACUUCC [A11C C15U G44U], for which the self-cleavage came to 0.04.

For GGCAGAGCUCCAUACAGCGUGGCAAAGUGGCUUUGGCUAGACUGCC [A11C C13U G33U], the self-cleavage came out at 0.04.

As for GGCAGAGCUCCACACAGUGUGGCAACGUGGCUGUGGCUAGACUGCC [A11C C18U A26C], the self-cleavage turned out to be 0.01.

As for GGCAGAGCUCCACAAAGCGUGGCAAAGUGGCUGUGGCUCGACUGAC [A11C C15A A39C C45A], the self-cleavage turned out to be 0.

Turning to GGCAGAGCUCCAUACAGAGUCGCAUAGUGGCUGUGGCUAGAAUGCC [A11C C13U C18A G21C A25U C42A], the self-cleavage is 0.01.

Turning to GGCAGAGCUCCGCACAGCGUGGCAAAGUGACUGUGGCCAGCCUGCC [A11C A12G G30A U38C A41C], the self-cleavage was found to be 0.02.

Consider GGCAGAGCUCCACACAGCGUGGCGAAAUGGCUUUGUCUAGUCUGUC [A11C A24G G27A G33U G36U A41U C45U], for which the self-cleavage amounted to 0.01.

Regarding GGCAGAGCUCCCCACCGCGUGGCAAAGUGGCUGUGGCUAGACUGCC [A11C A12C A16C], the self-cleavage amounted to 0.04.

With GGCAGAGCUCCACGCAGCGUAGGAAAGUGGCUGUGGCUAGACUGCC [A11C A14G G21A C23G], the self-cleavage came out at 0.05.
